The whole screen tested about 220,000 compounds, of which about 5,700 (2.6%) were called active. The shares of active, inactive and inconclusive entries below differ from those in the screen. Calls come from the whole dose curve; as a rule, active = well fitted inhibition curve with a large enough effect; inconclusive = small, poorly fitted or top-dose-only effect; inactive = no such curve, though single readings can be large or run the other way. Where the call is inconclusive, the potency comes from a doubtful curve fit.
Each molecule was assayed against Lysine-specific demethylase 5B (Homo sapiens) (UniProt Q9UGL1) (assay: Primary screen for KDM5B Histone Demethylases FDH-coupled qHTS). Conditions: FDH-coupled NADH fluorescence (FDH is formaldehyde dehydrogenase); activity change, negative = inhibition: at 57.7 µM (top of the series) unless noted.
Sequence of UniProt Q9UGL1 (Q9UGL1 whole entry, looked up): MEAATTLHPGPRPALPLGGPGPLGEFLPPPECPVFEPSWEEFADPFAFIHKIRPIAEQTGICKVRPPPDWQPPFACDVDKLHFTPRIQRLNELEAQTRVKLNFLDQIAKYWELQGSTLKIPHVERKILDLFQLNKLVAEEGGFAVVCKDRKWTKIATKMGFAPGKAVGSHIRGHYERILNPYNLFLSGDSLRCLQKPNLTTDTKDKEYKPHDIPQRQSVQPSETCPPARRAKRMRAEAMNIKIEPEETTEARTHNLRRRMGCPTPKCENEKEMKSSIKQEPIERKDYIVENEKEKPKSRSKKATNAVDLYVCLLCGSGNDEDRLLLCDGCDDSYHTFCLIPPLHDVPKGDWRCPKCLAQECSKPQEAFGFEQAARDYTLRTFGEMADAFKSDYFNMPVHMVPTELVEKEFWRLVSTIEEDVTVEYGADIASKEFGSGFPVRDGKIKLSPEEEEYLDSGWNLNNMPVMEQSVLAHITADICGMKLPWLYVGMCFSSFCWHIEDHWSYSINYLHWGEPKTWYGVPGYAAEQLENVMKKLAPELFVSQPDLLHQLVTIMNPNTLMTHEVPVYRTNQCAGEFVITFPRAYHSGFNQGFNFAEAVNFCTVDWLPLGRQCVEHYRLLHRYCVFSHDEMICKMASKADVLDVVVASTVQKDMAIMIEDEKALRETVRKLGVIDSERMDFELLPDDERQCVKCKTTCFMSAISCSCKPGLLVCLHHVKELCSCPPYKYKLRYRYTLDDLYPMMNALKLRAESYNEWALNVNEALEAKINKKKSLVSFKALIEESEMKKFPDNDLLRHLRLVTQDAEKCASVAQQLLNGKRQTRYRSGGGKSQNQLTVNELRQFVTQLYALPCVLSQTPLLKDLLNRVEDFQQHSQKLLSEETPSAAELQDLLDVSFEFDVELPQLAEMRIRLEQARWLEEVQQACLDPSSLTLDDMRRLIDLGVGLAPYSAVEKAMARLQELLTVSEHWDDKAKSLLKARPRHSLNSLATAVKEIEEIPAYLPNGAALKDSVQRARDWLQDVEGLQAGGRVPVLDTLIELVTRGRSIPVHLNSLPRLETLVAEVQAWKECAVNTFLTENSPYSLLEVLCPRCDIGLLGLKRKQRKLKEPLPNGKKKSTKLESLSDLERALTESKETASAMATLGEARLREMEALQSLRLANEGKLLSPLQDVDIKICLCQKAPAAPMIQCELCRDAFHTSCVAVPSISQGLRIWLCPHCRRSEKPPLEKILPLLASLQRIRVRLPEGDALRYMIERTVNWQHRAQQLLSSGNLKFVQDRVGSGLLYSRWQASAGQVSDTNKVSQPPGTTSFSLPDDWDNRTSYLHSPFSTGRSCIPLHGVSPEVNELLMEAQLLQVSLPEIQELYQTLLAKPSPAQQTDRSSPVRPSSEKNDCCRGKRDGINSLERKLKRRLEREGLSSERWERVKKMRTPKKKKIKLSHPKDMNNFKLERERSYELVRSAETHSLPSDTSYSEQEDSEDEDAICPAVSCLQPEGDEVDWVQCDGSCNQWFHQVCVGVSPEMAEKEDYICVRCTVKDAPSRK
How it was run: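 Measured: NADH fluorescence change, 30 min, RT. System: KDM5BΔAP 200 nM final, H3K4me3 peptide, α-KG, Fe(II), ascorbate, NAD⁺ plus FDH, pH 7.5 HEPES. Compounds: titrated, 10 min pre-incubation with enzyme.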
With CC(C)NC(=O)C1(CCO)CCN(c2ncccn2)C1 (configuration not stated) the Potency was active: 31.6 µM. For COc1ccc(OCC2(C)COc3ccc(C(=O)NCc4ccco4)cc3N2)cc1 (configuration not stated), the Potency was active: 17.8 µM. In the case of Cc1ccccc1Cn1c(SCc2ccc(C(=O)NCCc3ccccc3)cc2)nc2ccncc21, the Potency is reported as inconclusive: 35.5 µM [inhibitor, single point]. COc1ccc(CN(C)Cc2cccs2)cc1OCC(O)CN1CCN(C)CC1 (configuration not stated) was tested, and the “activity change, negative = inhibition” value was inactive: 42.5%. CSc1ncc(Cl)c(C(=O)N(Cc2ccc(C(C)C)cc2)C2CCS(=O)(=O)C2)n1 (configuration not stated) was tested, and the Potency was inconclusive: 3.55 µM [inhibitor, full curve, poor fit]. With CC(C)(C)c1ccc(C(=O)N[C@H]2CC(C)(C)[C@@H]3C[C@@](C)(O)CC[C@]23CCC(=O)N2CCCC2)cc1 the Potency was inconclusive: 15.8 µM [inhibitor, single point]. O=C(CC1N=C2c3ccccc3N=C(SCC(=O)Nc3ccc(F)cc3)N2C1=O)NCc1ccc2c(c1)OCO2 (configuration not stated) was tested, and the Potency was inconclusive: 31.6 µM [inhibitor, single point]. COCC(=O)N1CCC(Oc2ccccc2C(=O)N2CCN(c3ccccn3)CC2)CC1 was tested, and the Potency was inconclusive: 31.6 µM [inhibitor, partial curve, poor fit]. In the case of COc1ccc(-c2cn(C)c(=O)n3cc(COc4ccnn4C)nc23)cc1, the Potency is reported as inconclusive: 35.5 µM [inhibitor, partial curve]. CCc1cc(C(=O)N2CCOCC2CC(=O)N2CCSCC2)cs1 (configuration not stated) was tested, and the “activity change, negative = inhibition” value was inactive: 14.6%. O=C(Nc1nccs1)[C@@H]1C[C@@H](c2ccc(F)cc2)N(CCOc2ccccc2)C1 was tested, and the Potency was inconclusive: 35.5 µM [inhibitor, single point]. With COc1ccccc1C(=O)N1CCn2c(nn(-c3cccc(Cl)c3)c2=O)C1 the “activity change, negative = inhibition” value was inactive: 9.18% [at 115 µM]. COc1ccc(C(=O)Nc2nc3n(n2)C(c2ccc(F)cc2)C=C(c2ccc(Cl)cc2)N3)cc1 (configuration not stated) was tested, and the Potency was inconclusive: 35.5 µM [inhibitor, single point]. COc1ccc(NC(=O)COc2ncnc3ccccc23)cc1Cl was tested, and the “activity change, negative = inhibition” value was inactive: 18.8%. With CCc1ccccc1NS(=O)(=O)c1cc(Br)cc2c1N(C(=O)C1CC1)CC2 the activity change, negative = inhibition was inconclusive: -33.4% [inhibitor]. In the case of CCOC(=O)Cn1c(=O)n(CC2CCCO2)c2nc(-c3c(F)cccc3Cl)nc(C(N)=O)c21 (configuration not stated), the Potency is reported as inconclusive: 28.2 µM [inhibitor, partial curve, poor fit]. With CC(Nc1oc(-c2ccc(COc3ccc(Cl)cc3)o2)nc1C#N)c1ccccc1 (configuration not stated) the Potency was inconclusive: 28.2 µM [inhibitor, partial curve, poor fit]. For O=C(NC1C[C@H]2CC[C@@H](C1)N2C(=O)Cc1ccsc1)c1ccc(F)cc1 (some centres not stated), the “activity change, negative = inhibition” value was inactive: -8.11%. O=C(c1ccoc1)N1CCCN(Cc2cn(-c3ccccc3)nn2)CC1 was tested, and the “activity change, negative = inhibition” value was inactive: -16.2%. For N#C/C(=C/c1ccc(C#N)cc1)C(=O)Nc1ccc(N2CCOCC2)cc1, the Potency was inconclusive: 39.8 µM [inhibitor, single point]. CCn1cc(S(=O)(=O)c2ccc(C)cc2C)c(=O)c2cc(F)c(N3CCCCC3)cc21 was tested, and the Potency was inconclusive: 35.5 µM [inhibitor, partial curve, poor fit]. CCOc1ccc(NC(=O)CN2CCSc3ccc(S(=O)(=O)N4CCCC4)cc32)cc1 was tested, and the Potency was inconclusive: 31.6 µM [inhibitor, partial curve, poor fit]. COC(=O)c1c(NC(=O)/C=C/c2ccc(OC)c(OC)c2)sc2c1CCC2 was tested, and the Potency was inconclusive: 5.01 µM [inhibitor, partial curve, poor fit]. For CCN(CC)c1cc2c(cc1F)c(=O)c(S(=O)(=O)c1ccccc1)cn2C, the Potency was inconclusive: 39.8 µM [inhibitor, partial curve, poor fit]. CNC(=O)NC(=O)C(C)SC(C)c1c(F)cccc1F (configuration not stated) was tested, and the “activity change, negative = inhibition” value was inactive: 26.3%. With COc1ccccc1N1CC(O)=C(c2nc3ccccc3s2)C1=N the Potency was inconclusive: 20 µM [inhibitor, partial curve, poor fit]. For COc1cccc(/C=C(\C#N)c2nc3ccc(C)cc3[nH]2)c1OC, the Potency was inconclusive: 22.4 µM [inhibitor, partial curve, poor fit]. In the case of O=C(NCCOc1ccccc1)c1cnc2n1CCN(CC1CCOCC1)CC2, the “activity change, negative = inhibition” value is reported as inactive: -2.53% [at 86.2 µM]. CC/C=C(/C)C(=O)NCC(c1ccsc1)N(C)C (configuration not stated) was tested, and the “activity change, negative = inhibition” value was inactive: -14.7%. With CCOC(=O)Cn1c(=O)n(CC2CCCO2)c2nc(-c3ccc(CC)cc3)nc(C(N)=O)c21 (configuration not stated) the Potency was inconclusive: 14.1 µM [inhibitor, partial curve, poor fit]. With O=C(Nc1cccc2ccccc12)N[C@H]1CO[C@H]2[C@@H]1OC[C@@H]2Nc1nccc(-c2cccs2)n1 the Potency was inconclusive: 14.1 µM [inhibitor, partial curve]. With CCCc1nn2c(=O)cc(COC(=O)c3ccco3)nc2s1 the activity change, negative = inhibition was inconclusive: -31.4% [inhibitor]. In the case of CCC(=O)Nc1cc2nn(-c3ccc(C)cc3)nc2cc1C, the Potency is reported as inconclusive: 3.55 µM [inhibitor, full curve, poor fit]. For CC(C)NC(=O)C1CCc2nnc(-c3ccc(Cl)cc3Cl)n21 (configuration not stated), the “activity change, negative = inhibition” value was inactive: 15.1% [at 149 µM]. With CCOc1ccc2c(n1)CCN(C(=O)c1ccc(OC)c(OC)c1)C2 the Potency was inconclusive: 17.8 µM [inhibitor, single point]. With O=C(NC1CCCc2c1cnn2-c1ccccn1)c1cn[nH]c1-n1cnnn1 (configuration not stated) the “activity change, negative = inhibition” value was inactive: 8.63%. Cc1cccc(NC(=O)C2CC(=O)N(c3n[nH]c4cc(Br)ccc34)C2)c1 (configuration not stated) was tested, and the Potency was inconclusive: 35.5 µM [inhibitor, single point]. With CC(C)n1ccnc1CN1CCCC12CCN(c1ccc(C(F)(F)F)cn1)CC2 the Potency was inconclusive: 20 µM [inhibitor, partial curve, poor fit]. COc1ccc(C2CC(=O)C=C(Nc3ccc(F)cc3F)C2)cc1 (configuration not stated) was tested, and the “activity change, negative = inhibition” value was inactive: -6.39%. CCOc1cc2c(cc1NC(=O)Cc1ccc(OC)cc1)OC(C)C2 (configuration not stated) was tested, and the “activity change, negative = inhibition” value was inactive: -6.28%. In the case of Cc1nc2c(c(C)nn2C(C)(C)C)c(C)c1CCC(=O)Nc1ccc(Br)cc1Br, the Potency is reported as inconclusive: 17.8 µM [inhibitor, partial curve, poor fit]. COc1ccc(CN2CCn3c(nn(-c4ccc(F)cc4F)c3=O)C2)cc1 was tested, and the Potency was active: 22.4 µM.
Note: nearly all actives have a fitted effect of over 70% in size.
Potency is the fitted concentration of half-maximal effect; tags give direction and shape of the fitted curve.
Throughout, for activity change, negative = inhibition: 0% is about no effect.
